The source of these data is article PMC9911399, “Two distinct binding modes provide the RNA-binding protein RbFox with extraordinary sequence specificity”.

Positions count from the first letter of the chain named. Some of the results follow.

T1: RBFOX1 RRM RbFoxmut (Fox-RRM*) (Homo sapiens, UniProt Q9NWB1 109-208, R118D;E147R;N151S;E152T)
T1 sequence: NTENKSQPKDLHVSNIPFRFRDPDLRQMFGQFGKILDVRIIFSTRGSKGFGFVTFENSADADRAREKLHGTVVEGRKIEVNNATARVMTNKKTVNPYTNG

B1: AGACCAU (DNA:RNA)
RNA: GGGAGACCGGAAUUCAGAUUGUCCAGACCAUUUAAAUCCCGUCGUAGCCACCA
DNA 1: CAATCTGAATTCCGGTCTCCC
DNA 2: TGGTGGCTACGACGGGATT
B2: GCCUAAC (DNA:RNA)
RNA: B1 RNA with A25G, G26C, A27C, C28U, C29A, U31C
DNA 1: CAATCTGAATTCCGGTCTCCC
DNA 2: TGGTGGCTACGACGGGATT
B3: AACACGG (DNA:RNA)
RNA: B1 RNA with G26A, A27C, C28A, A30G, U31G
DNA 1: CAATCTGAATTCCGGTCTCCC
DNA 2: TGGTGGCTACGACGGGATT
B4: GUUGAAU (DNA:RNA)
RNA: B1 RNA with A25G, G26U, A27U, C28G, C29A
DNA 1: CAATCTGAATTCCGGTCTCCC
DNA 2: TGGTGGCTACGACGGGATT
B5: AAGUAGG (DNA:RNA)
RNA: B1 RNA with G26A, A27G, C28U, C29A, A30G, U31G
DNA 1: CAATCTGAATTCCGGTCTCCC
DNA 2: TGGTGGCTACGACGGGATT
B6: UUCAUGC (DNA:RNA)
RNA: GGGAGACCGGAAUUCAGAUUGUCCUUCAUGCUUAAAUCCCGUCGUAGCCACCA
DNA 1: CAATCTGAATTCCGGTCTCCC
DNA 2: TGGTGGCTACGACGGGATT
B7: GACCCAC (DNA:RNA)
RNA: B1 RNA with A25G, G26A, A27C, U31C
DNA 1: CAATCTGAATTCCGGTCTCCC
DNA 2: TGGTGGCTACGACGGGATT
B8: UUCCCUU (DNA:RNA)
RNA: B1 RNA with A25U, G26U, A27C, A30U
DNA 1: CAATCTGAATTCCGGTCTCCC
DNA 2: TGGTGGCTACGACGGGATT
B9: AUAAGAA (DNA:RNA)
RNA: B1 RNA with G26U, C28A, C29G, U31A
DNA 1: CAATCTGAATTCCGGTCTCCC
DNA 2: TGGTGGCTACGACGGGATT
B10: UACCAUC (DNA:RNA)
RNA: B6 RNA with U26A, A28C, U29A, G30U
DNA 1: CAATCTGAATTCCGGTCTCCC
DNA 2: TGGTGGCTACGACGGGATT
B11: AGUUGGC (DNA:RNA)
RNA: B1 RNA with A27U, C28U, C29G, A30G, U31C
DNA 1: CAATCTGAATTCCGGTCTCCC
DNA 2: TGGTGGCTACGACGGGATT
B12: CGAAAGA (DNA:RNA)
RNA: B1 RNA with A25C, C28A, C29A, A30G, U31A
DNA 1: CAATCTGAATTCCGGTCTCCC
DNA 2: TGGTGGCTACGACGGGATT
B13: CGGCUCU (DNA:RNA)
RNA: B1 RNA with A25C, A27G, C29U, A30C
DNA 1: CAATCTGAATTCCGGTCTCCC
DNA 2: TGGTGGCTACGACGGGATT
B14: AUAACAG (DNA:RNA)
RNA: B1 RNA with G26U, C28A, U31G
DNA 1: CAATCTGAATTCCGGTCTCCC
DNA 2: TGGTGGCTACGACGGGATT
B15: CUAGUAA (DNA:RNA)
RNA: B1 RNA with A25C, G26U, C28G, C29U, U31A
DNA 1: CAATCTGAATTCCGGTCTCCC
DNA 2: TGGTGGCTACGACGGGATT
B16: AUCUUCC (DNA:RNA)
RNA: B6 RNA with U25A, A28U, G30C
DNA 1: CAATCTGAATTCCGGTCTCCC
DNA 2: TGGTGGCTACGACGGGATT
B17: UUCGCGA (DNA:RNA)
RNA: B6 RNA with A28G, U29C, C31A
DNA 1: CAATCTGAATTCCGGTCTCCC
DNA 2: TGGTGGCTACGACGGGATT
B18: CUACCUU (DNA:RNA)
RNA: B1 RNA with A25C, G26U, A30U
DNA 1: CAATCTGAATTCCGGTCTCCC
DNA 2: TGGTGGCTACGACGGGATT
B19: AUCCAAG (DNA:RNA)
RNA: B1 RNA with G26U, A27C, C29A, U31G
DNA 1: CAATCTGAATTCCGGTCTCCC
DNA 2: TGGTGGCTACGACGGGATT
B20: CGCCCAG (DNA:RNA)
RNA: B1 RNA with A25C, A27C, U31G
DNA 1: CAATCTGAATTCCGGTCTCCC
DNA 2: TGGTGGCTACGACGGGATT

The target of the assay is T1, RBFOX1 RRM RbFoxmut (Fox-RRM*). In words: EMSA; HiTS-Eq, 1 nM pool, 10 min; buffer printed only for the single-RNA assays: 10 mM Tris pH 7.5, 150 mM NaCl, 3.4 mM EDTA, 0.001% NP-40, 30 C. The note with it: tags: His6 N-terminal (pET28a); label: 5' 32P. The method in brief: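 A pool of RNA with 7 randomized nucleotides, 5′-radiolabelled and with DNA-annealed flanks, was equilibrated at 1 nM for 10 min in 50 µL with purified RbFox RRM, wild type or mutant, across increasing protein concentrations. Free RNA was separated by 8% native PAGE, excised, reverse-transcribed, barcoded by PCR and sequenced. Relative association constants were obtained from read-count changes of each RNA species versus the control reaction and normalised to the cognate motif.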
On the technique in general: Mobility shift assays separate free from complexed probe on a gel.
With B1, the binding signal is 0.0658 KA relative to UGCAUGU.

As to B2, the binding signal was 0.0572 KA relative to UGCAUGU.

On to B3, for which the binding signal is 0.0833 KA relative to UGCAUGU.

Turning to B4, the binding signal was 0.125 KA relative to UGCAUGU.

On to B5, for which the binding signal is 0.113 KA relative to UGCAUGU.

For B6, the binding signal is 0.13 KA relative to UGCAUGU.

Turning to B7, the binding signal was 0.0725 KA relative to UGCAUGU.

As to B8, the binding signal was 0.064 KA relative to UGCAUGU.

Take B9: the binding signal is 0.103 KA relative to UGCAUGU.

In the case of B10, the binding signal is 0.0736 KA relative to UGCAUGU.

As to B11, the binding signal was 0.107 KA relative to UGCAUGU.

For B12, the binding signal was 0.0791 KA relative to UGCAUGU.

Take B13: the binding signal is 0.0931 KA relative to UGCAUGU.

As for B14, the binding signal was 0.0845 KA relative to UGCAUGU.

On to B15, for which the binding signal was 0.117 KA relative to UGCAUGU.

For the molecule B16, the binding signal was 0.0652 KA relative to UGCAUGU.

Turning to B17, the binding signal was 0.0665 KA relative to UGCAUGU.

Consider B18, for which the binding signal was 0.0888 KA relative to UGCAUGU.

For the molecule B19, the binding signal was 0.128 KA relative to UGCAUGU.

Consider B20, for which the binding signal was 0.115 KA relative to UGCAUGU.
